{"source": "PubChem BioAssay (NCATS)", "note": "The inconclusive results got no clear call from the source; some entries with a clear call stand among them for comparison. Where the call is inconclusive, the potency comes from a doubtful curve fit. Calls of active or inactive are those of the source. The call rests on the fitted dose curve; in most records, active means well fitted cell-killing curve with a large enough effect; inconclusive means small, poorly fitted or top-dose-only effect, or effect the other way; inactive means flat fitted curve, though single readings scatter. Potency means the concentration at half of the fitted maximal effect; tags describe the fitted curve by direction and shape.", "data": [{"test_system": "Hek293T", "assay": "Primary qHTS to identify gynecologic anti-cancer compounds using libraries of approved drugs and bioactive compounds (AID 1345084); further: nearly all actives have a fitted effect of over 55% in size", "details": "Gynecologic cancer cell panel viability, ATPlite luminescence, 48 h, control line for the selectivity index; series mostly up to 57.5 µM", "summary_of_the_method": "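In this quantitative HTS, cell killing is estimated from loss of ATP-dependent luciferase light. Cells see five compound concentrations over a 48 h exposure.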", "values": [{"smiles": "CC(=O)NC1=NN(C(C)=O)C(C)(c2ccccc2)S1", "note": "(centres undefined)", "Potency": "inconclusive: 3.98 µM [cytotoxic, full curve]"}, {"smiles": "CNC(=O)c1cccc(-c2ccc3c(N4CCOC[C@@H]4C)nc(N4CCOC[C@@H]4C)nc3n2)c1", "Potency": "active: 1.41 µM"}, {"smiles": "Nc1ncnc2c1nc(N)n2[C@@H]1O[C@H](CO)[C@@H](O)[C@H]1O", "Potency": "active: 7.94 µM"}, {"smiles": "COc1ccc(F)cc1-c1cc(NC(=O)[C@@H]2CCCNC2)ncc1Cl", "Potency": "active: 0.398 µM"}, {"smiles": "COc1ccnc(CS(=O)c2nc3cc(OC(F)F)ccc3[nH]2)c1OC", "note": "(centres undefined)", "Potency": "inactive"}, {"smiles": "C=C(CCC1=C(C)[C@H]2[C@H](CC3[C@@H]4CC=C5C[C@@H](O)C[C@@H](O)[C@]5(C)C4[C@H](O)C[C@@]32C)O1)CO[C@@H]1O[C@H](CO)[C@@H](O)[C@H](O)[C@H]1O", "note": "(some centres undefined)", "Potency": "active: 3.16 µM"}, {"smiles": "C=C1C(=O)O[C@H]2/C=C(/C)[C@@H](OC(C)=O)C/C=C(\\C)C[C@@H](OC(=O)/C(=C/C)COC(=O)/C(=C/C)CO)[C@@H]12", "Potency": "inconclusive: 11.2 µM [cytotoxic, single point]"}, {"smiles": "CC(Nc1ncnc2nc[nH]c12)c1cc2cccc(Cl)c2c(=O)n1-c1ccccc1", "note": "(centres undefined)", "Potency": "inconclusive: 28.2 µM [cytotoxic, single point]"}, {"smiles": "O=C1CSc2ccccc2N1Cc1cccc(C(F)(F)F)c1", "Potency": "inactive"}, {"smiles": "C/C1=C\\CCC2=CC(OC2=O)C(C)(C)/C=C/C1=O", "note": "(centres undefined)", "Potency": "inconclusive: 35.5 µM [cytotoxic, single point]"}, {"smiles": "CC(=O)O[C@H]1CC(C)(C)CC2[C@]13CO[C@@]21CCC2[C@@]4(C)CC[C@H](O[C@@H]5OC[C@H](O[C@@H]6O[C@H](CO)[C@@H](O)[C@H](O)[C@H]6O[C@@H]6OC[C@@H](O[C@@H]7O[C@H](CO)[C@@H](O)[C@H](O)[C@H]7O)[C@H](O)[C@H]6O)[C@H](O)[C@H]5O[C@@H]5O[C@H](CO)[C@@H](O)[C@H](O)[C@H]5O)[C@@](C)(CO)C4CC[C@@]2(C)[C@]1(C)C[C@H]3O", "note": "(some centres undefined)", "Potency": "active: 2.82 µM"}, {"smiles": "CCN(CC)CCOc1ccc2c(c1)C(=O)c1cc(OCCN(CC)CC)ccc1-2", "Potency": "inconclusive: 35.5 µM [cytotoxic, single point]"}, {"smiles": "Cc1ccc(Nc2c(F)cccc2Cl)c(CC(=O)O)c1", "Potency": "inconclusive: 39.8 µM [cytotoxic, single point]"}, {"smiles": "N#CC(c1ccnc(OCc2ccc(CN3CCOCC3)cc2)n1)c1nc2ccccc2s1", "note": "(centres undefined)", "Potency": "inconclusive: 10 µM [cytotoxic, partial curve]"}, {"smiles": "CC(=O)O[C@@](C)(C(=O)/C=C/C(C)(C)O)[C@H]1[C@H](O)C[C@@]2(C)[C@@H]3CC=C4[C@@H](C=C(O)C(=O)C4(C)C)[C@]3(C)C(=O)C[C@]12C", "Potency": "inconclusive: 20 µM [cytotoxic, single point]"}, {"smiles": "Cc1cc(C)c(Nc2ccnc(Nc3ccc(C#N)cc3)n2)c(C)c1", "Potency": "inconclusive: 22.4 µM [cytotoxic, partial curve, poor fit]"}, {"smiles": "C=C1C(=O)O[C@@H]2C[C@H](C)[C@@H]3CC(=O)C(C)=C3C[C@H]12", "Potency": "inconclusive: 25.1 µM [cytotoxic, single point]"}, {"smiles": "CCNC(=O)C#Cc1ccc2c(C(=Nc3ccc(CN(C)C)cc3)c3ccccc3)c(O)[nH]c2c1", "Potency": "inactive"}, {"smiles": "CC(=O)NCC(=O)N1C2CCC1c1cc(Nc3ncc(C(F)(F)F)c(NC4CCC4)n3)ccc12", "note": "(centres undefined)", "Potency": "active: 3.98 µM"}]}]}
